Among all 350,000 compounds or so, about 31,000 (8.9%) were called active. Inconclusive results, whose numbers are uncertain, are shown with a selection of clear calls. Calls come from the whole dose curve; as a rule, active = well fitted inhibition curve with a large enough effect; inconclusive = small, poorly fitted or top-dose-only effect; inactive = no such curve, though single readings can be large or run the other way. Where the call is inconclusive, the potency comes from a doubtful curve fit.
Each molecule was assayed against Histone-lysine N-methyltransferase EHMT2 (Homo sapiens) (UniProt Q96KQ7) (assay: qHTS Assay for Inhibitors of Histone Lysine Methyltransferase G9a). Details: G9a H3K9 monomethylation, AlphaScreen, 2 h; activity, negative = inhibition: at 59 µM (top of the series) unless noted.
Procedure, shortened: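 Signal arises when biotinylated H3K9 peptide, once monomethylated, bridges streptavidin donor and antibody-captured acceptor beads. Enzyme at 20 nM was preincubated 15 min with test compounds; peptide 500 nM and SAM 20 uM then reacted for 2 h.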
% is set by controls: 0 for no effect and ±100 for the full control effect; potency is the fitted concentration of half-maximal effect; tags give direction and shape of the fitted curve.
Note: nearly all actives have a fitted effect of over 75% in size.

Sequence of UniProt Q96KQ7 (Q96KQ7 whole entry, looked up): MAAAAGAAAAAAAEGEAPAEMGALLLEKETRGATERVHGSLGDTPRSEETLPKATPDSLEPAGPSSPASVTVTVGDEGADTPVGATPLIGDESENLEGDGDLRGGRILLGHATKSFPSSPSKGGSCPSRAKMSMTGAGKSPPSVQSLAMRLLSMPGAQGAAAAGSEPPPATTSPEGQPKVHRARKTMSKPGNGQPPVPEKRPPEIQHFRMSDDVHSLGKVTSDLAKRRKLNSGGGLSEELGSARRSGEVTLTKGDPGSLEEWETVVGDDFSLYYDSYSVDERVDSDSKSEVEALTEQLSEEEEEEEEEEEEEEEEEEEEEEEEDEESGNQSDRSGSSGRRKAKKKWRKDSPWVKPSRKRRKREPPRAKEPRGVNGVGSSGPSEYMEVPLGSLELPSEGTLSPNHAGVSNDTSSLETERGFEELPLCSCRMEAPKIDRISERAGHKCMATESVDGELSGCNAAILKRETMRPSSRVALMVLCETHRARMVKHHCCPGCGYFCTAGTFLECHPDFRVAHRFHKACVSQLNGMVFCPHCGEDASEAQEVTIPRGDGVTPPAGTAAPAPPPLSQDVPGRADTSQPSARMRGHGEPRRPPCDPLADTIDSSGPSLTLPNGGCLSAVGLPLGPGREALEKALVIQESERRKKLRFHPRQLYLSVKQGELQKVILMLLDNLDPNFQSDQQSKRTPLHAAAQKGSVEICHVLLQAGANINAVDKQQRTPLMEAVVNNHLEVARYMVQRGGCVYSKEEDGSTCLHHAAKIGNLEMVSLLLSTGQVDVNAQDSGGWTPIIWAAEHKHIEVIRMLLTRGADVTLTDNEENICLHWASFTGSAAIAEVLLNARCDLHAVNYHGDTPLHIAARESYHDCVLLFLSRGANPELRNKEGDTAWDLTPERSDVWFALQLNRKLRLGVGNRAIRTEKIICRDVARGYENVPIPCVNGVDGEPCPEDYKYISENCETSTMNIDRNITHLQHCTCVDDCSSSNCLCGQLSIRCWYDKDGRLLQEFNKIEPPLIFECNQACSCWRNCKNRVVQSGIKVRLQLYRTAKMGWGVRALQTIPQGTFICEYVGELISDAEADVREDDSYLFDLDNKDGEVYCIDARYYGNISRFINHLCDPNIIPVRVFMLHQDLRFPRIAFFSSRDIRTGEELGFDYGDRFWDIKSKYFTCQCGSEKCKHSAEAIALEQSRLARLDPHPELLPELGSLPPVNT

Row | Structure (SMILES) | activity, negative = inhibition | Potency
1 | CC1=C(C(=O)Nc2cccnc2)C(c2ccc(Cl)cc2)n2nc(SCc3ccccc3)nc2N1 (configuration not stated) | inactive: -3.68% | 
2 | N#CC(C(=O)c1ccco1)c1ccccn1 (configuration not stated) |  | active: 35.5 µM
3 | CC1CCC(NC(=S)NCCN(C)C)CC1 (configuration not stated) |  | active: 39.8 µM
4 | Cc1ccc(-c2c[n+](CC(=O)OCc3ccccc3)c3n2CCC3)cc1 |  | inconclusive: 89.1 µM [inhibitor, single point]
5 | CCc1nnc(NC(=O)Cc2cccs2)s1 | inactive: 5.33% [at 102 µM] | 
6 | CC(=O)c1c(N2CCOCC2)nc(=O)n(-c2ccccc2)c1C |  | active: 44.7 µM
7 | O=C(Nc1nccs1)C(=O)c1c[nH]c2ccccc12 |  | inconclusive: 22.4 µM [inhibitor, partial curve, poor fit]
8 | COc1ccc2nc(SCC(=O)N3CC(=O)Nc4ccccc43)c(C#N)cc2c1 | inactive: -24% [at 102 µM] | 
9 | O=c1c2ccccc2cnn1Cc1n[nH]c(=S)n1-c1ccc(F)c(Cl)c1 |  | active: 3.16 µM
10 | CC(C)c1ccc(/C=C/C(=O)N2CCOCC2)cc1 |  | inconclusive: 2.82 µM [inhibitor, single point]
11 | CC(C)NC(=O)NC(=O)COC(=O)c1c2c(nc3ccccc13)CCC2 |  | inconclusive: 89.1 µM [inhibitor, single point]
12 | O=C(Nc1nnc(-c2ccccc2F)s1)C1CCCO1 (configuration not stated) |  | inconclusive: 28.2 µM [inhibitor, single point]
13 | O=C(NCC(c1ccco1)N1CCc2ccccc21)c1ccccc1F (configuration not stated) |  | active: 56.2 µM
14 | O=C(NCc1ccc(Cl)cc1)c1cc(-c2cccs2)on1 |  | inconclusive: 89.1 µM [inhibitor, partial curve, poor fit]
15 | CCN(CC)c1cc2c(cc1F)c(=O)c(S(=O)(=O)c1ccc(C)cc1)cn2Cc1ccc(F)cc1 | inactive: 0.186% | 
16 | Cc1cc(OC(=O)c2cc([N+](=O)[O-])ccc2Cl)c([N+](=O)[O-])c(=O)[nH]1 |  | inconclusive: 89.1 µM [inhibitor, single point]
17 | Fc1ccc(N2CCN(C(c3cccs3)c3nnnn3CCc3ccccc3)CC2)cc1 (configuration not stated) | inactive: -8.01% | 
18 | Brc1ccc(CN2CCc3nc(N4CCN(c5ncccn5)CC4)ncc3C2)cc1 |  | inconclusive: 35.5 µM [inhibitor, single point]
19 | CCCc1nnc(NC(=O)Cc2coc3ccc(C)cc23)s1 | inactive: 9.9% | 
20 | Cc1ccc(C(=O)NCCN2CCOCC2)cc1S(=O)(=O)N1CCCCC1 |  | inconclusive: 0.398 µM [inhibitor, partial curve, poor fit]
21 | Cn1c(-c2ccc(S(=O)(=O)N3CCCC3)cc2)csc1=Nc1ccc(Cl)c(Cl)c1 |  | inconclusive: 17.8 µM [inhibitor, partial curve, poor fit]
22 | O=S(=O)(c1cccc2cccnc12)N(CCO)CCO |  | inconclusive: 89.1 µM [inhibitor, single point]
23 | CC(C)c1ccccc1Oc1c(C(F)(F)F)oc2c(CN3CCN(C)CC3)c(O)ccc2c1=O |  | inconclusive: 6.31 µM [inhibitor, partial curve, poor fit]
24 | CN(CCCNS(=O)(=O)c1cccc2cccnc12)Cc1ccccc1 |  | inconclusive: 79.4 µM [inhibitor, single point]

Row | Structure (SMILES) | activity, negative = inhibition | Potency
25 | CN1CCN(NC(=O)/C=C/c2cccc(Cl)c2)CC1 |  | inconclusive: 50.1 µM [inhibitor, partial curve, poor fit]
26 | CCCC(C)NC(C)C(=O)NC1CCCC1 (configuration not stated) | inactive: 21.2% [at 102 µM] | 
27 | COC(=O)[C@@]12CCCN1[C@H](c1ccc(-c3ccccc3)cc1)[C@@H]1C(=O)N(C)C(=O)[C@@H]12 | inactive: 12.8% [at 2.33 µM] | 
28 | O=C(CO/N=C/c1cccc([N+](=O)[O-])c1)NC1CCCCC1 |  | inconclusive: 89.1 µM [inhibitor, single point]
29 | CC(OC(=O)c1cnccn1)C(=O)c1ccccc1 (configuration not stated) | inactive: -0.925% [at 102 µM] | 
30 | CCCc1cc(=O)[nH]c(SCC(=O)c2cc(C)n(CCC)c2C)n1 |  | inconclusive: 89.1 µM [inhibitor, partial curve, poor fit]
31 | COc1ccc(N2CC(NC(=O)Nc3ccccc3)CC2=O)cc1 (configuration not stated) | inactive: 42.4% [at 102 µM] | 
32 | CC(=O)NC(=S)Nc1ccc(N2CCOCC2)c(S(=O)(=O)Nc2cc(Cl)ccc2Cl)c1 |  | inconclusive: 89.1 µM [inhibitor, single point]
33 | CCOc1ccc(-c2nc(CNC(=O)Nc3ccccc3)c(C)o2)cc1 | inactive: 17.9% | 
34 | COc1ccccc1N1CCN(C(=O)c2cc3c(=O)oc4ccc(C)cc4c3s2)CC1 | inactive: -5.03% | 
35 | COc1ccc(CCN2CC(C(=O)Nc3cc(S(C)(=O)=O)ccc3Cl)CC2=O)cc1OC (configuration not stated) | inactive: 7.11% [at 102 µM] | 
36 | NC(=O)Nc1ccc(C(=O)N2CCN(S(=O)(=O)Cc3ccccc3)CC2)cc1 | inactive: -0.525% | 
37 | CC(C)N(C(=O)CSc1ccc(S(=O)(=O)N2CCCCC2)cn1)C(C)C |  | inconclusive: 28.2 µM [inhibitor, single point]
38 | Cc1cc(=O)oc(C)c1C(=O)NCc1c(F)cc(F)cc1F |  | inconclusive: 56.2 µM [inhibitor, partial curve, poor fit]
39 | Cc1cc(C)n2c(Nc3ccc4c(c3)OCCO4)c(-c3ccco3)nc2n1 |  | active: 50.1 µM
40 | CCC(=O)c1cc(-c2nc3ccccc3n2C)n(C)c1 | inactive: -4.3% | 
41 | NS(=O)(=O)c1ccc(NC(=S)NNC(=O)c2cccs2)cc1 |  | active: 8.91 µM
42 | Cc1ccc(S(=O)(=O)NC(C)(C)CN2CCC(Cc3ccccc3)CC2)cc1 |  | active: 7.94 µM
43 | CCOc1cc(C(=O)Nc2nnc(CC)s2)ccc1OCC(=O)N1CCOCC1 |  | inconclusive: 31.6 µM [inhibitor, partial curve, poor fit]
44 | CC(/C=N/NC(=O)CN1CCN(Cc2ccc(Cl)cc2)CC1)=C\c1ccco1 |  | inconclusive: 39.8 µM [inhibitor, single point]
45 | COc1cc(NC(=O)C2CC2)c(C(=O)O)cc1OC |  | active: 50.1 µM
46 | Cc1cc(C)c(/C=C/c2onc(C)c2S(=O)(=O)N2CCC(C(=O)Nc3ccc(Cl)cc3C)CC2)c(C)c1 |  | inconclusive: 35.5 µM [inhibitor, single point]
47 | Cc1onc(-c2ccccc2Cl)c1C(=O)Nc1ncn[nH]1 |  | inconclusive: 39.8 µM [inhibitor, single point]
